Measured values published in the antibiotic and cytotoxicity screens of Wong et al. (2023).
The other results are listed elsewhere or left out.

Assays:
[1] = system: HSkMC (human skeletal muscle cells); assay: cytotoxicity call (relative viability < 0.9); conditions: 10 µM
[2] = system: HepG2; assay: cytotoxicity call (relative viability < 0.9); conditions: 10 µM
[3] = system: S. aureus RN4220; assay: growth inhibition call (relative growth <= 0.2); conditions: 50 µM

Row | Structure (SMILES) | cytotoxicity call [1] | cytotoxicity call [2] | growth inhibition call [3]
1 | CCNc1nc(NCC)nc(C(=O)OCCO)n1 | inactive | active | inactive
2 | CC12CCC3c4ccc(O)cc4CCC3C1CCC2OC(=O)CCC1CCCC1 (configuration not stated) | active | inactive | inactive
3 | C[C@@H]1CCCCO[C@@H](CN(C)S(=O)(=O)c2ccc(Cl)cc2)[C@@H](C)CN([C@H](C)CO)C(=O)c2cc(NC(=O)NC3CCCCC3)ccc2O1 | inactive | inactive | inactive
4 | C[C@@H]1CN([C@H](C)CO)C(=O)c2cccc(NC(=O)c3ccc(-c4nccs4)cc3)c2O[C@@H]1CN(C)CC1CCCCC1 | inactive | inactive | inactive
5 | COc1cccc(S(=O)(=O)Nc2ccc3c(c2)[C@H]2C[C@@H](CC(=O)NC4CCCCC4)O[C@@H](CO)[C@H]2O3)c1 | inactive | inactive | inactive
6 | C[C@H](CO)N1C[C@H](C)[C@@H](CN(C)S(=O)(=O)c2ccccc2)OCCCC[C@H](C)Oc2ccc(NC(=O)C3CCCCC3)cc2C1=O | inactive | inactive | inactive
7 | C[C@H](CO)N1C[C@H](C)[C@H](CN(C)C(=O)Nc2cccc(F)c2)OCc2ccccc2-c2ccccc2C1=O | inactive | inactive | inactive
8 | C[C@@H]1CN([C@@H](C)CO)C(=O)c2cc(NC(=O)NC3CCCCC3)ccc2O[C@@H](C)CCCCO[C@@H]1CN(C)C(=O)c1ccncc1 | inactive | inactive | inactive
9 | Cc1cc(C(=O)Nc2cccc3c2O[C@@H](CN(C)C(=O)Nc2ccccc2)[C@@H](C)CN([C@@H](C)CO)C3=O)n(C)n1 | inactive | inactive | inactive
10 | C[C@@H]1CN([C@@H](C)CO)C(=O)c2cc(-c3cccc(C(=O)N(C)C)c3)cnc2O[C@@H]1CN(C)C(=O)Cc1ccccn1 | inactive | inactive | inactive
11 | Cc1noc(C)c1NC(=O)N(C)C[C@H]1Oc2c(NS(=O)(=O)c3ccccc3)cccc2C(=O)N([C@@H](C)CO)C[C@H]1C | inactive | inactive | inactive
12 | COc1ccc(S(=O)(=O)N(C)C[C@H]2Oc3ccc(NS(=O)(=O)c4ccc(F)cc4)cc3CC(=O)N([C@@H](C)CO)C[C@H]2C)cc1 | inactive | inactive | inactive
13 | C[C@H]1CN([C@@H](C)CO)S(=O)(=O)c2ccc(C#Cc3ccccc3)cc2O[C@H]1CN(C)S(C)(=O)=O | inactive | inactive | inactive
14 | C[C@@H]1CN([C@@H](C)CO)C(=O)c2cc(NC(=O)C3CCCCC3)ccc2O[C@@H](C)CCCCO[C@@H]1CN(C)C(=O)CCC(F)(F)F | inactive | inactive | inactive
15 | C[C@H](CO)N1C[C@H](C)[C@H](CN(C)C(=O)Nc2ccccc2)OCCCC[C@H](C)Oc2ccc(NC(=O)Nc3ccc4c(c3)OCO4)cc2C1=O | inactive | inactive | inactive
16 | C[C@@H]1CCCCO[C@@H](CN(C)S(=O)(=O)c2cn(C)cn2)[C@H](C)CN([C@@H](C)CO)C(=O)c2cc(NS(=O)(=O)c3ccc(F)cc3)ccc2O1 | inactive | inactive | inactive
17 | COc1ccc(CCNC(=O)[C@@]2(Sc3ccc(C)cc3)CC(=O)N(Cc3cc(C(F)(F)F)cc(C(F)(F)F)c3)[C@@H]2c2ccc(CO)cc2)cc1 | inactive | inactive | inactive
18 | C[C@@H]1CN([C@H](C)CO)C(=O)Cc2cc(NC(=O)Cn3cnnn3)ccc2O[C@@H]1CN(C)C(=O)NC1CCCCC1 | inactive | inactive | inactive
19 | COc1ccc(C#Cc2cnc3c(c2)C(=O)N([C@H](C)CO)C[C@H](C)[C@H](CN(C)C(=O)CC2CC2)O3)cc1 | inactive | inactive | inactive
20 | C[C@@H]1CN([C@H](C)CO)C(=O)Cc2cc(NC(=O)Cc3cn(C)c4ccccc34)ccc2O[C@@H]1CN(C)Cc1ccc(C(F)(F)F)cc1 | inactive | active | inactive
21 | Cc1ccc(S(=O)(=O)N(C)C[C@H]2Oc3c(NC(=O)NC(C)C)cccc3C(=O)N([C@@H](C)CO)C[C@@H]2C)cc1 | inactive | inactive | inactive
22 | COc1c(C)c2c(c(O)c1CC=C(C)CCC(=O)OCCN1CCOCC1)C(=O)OC2 | inactive | inactive | inactive
23 | COc1ccc(S(=O)(=O)Nc2ccc3c(c2)C(=O)N([C@H](C)CO)C[C@H](C)[C@@H](CN(C)CC2CC2)O3)cc1 | inactive | inactive | inactive
24 | CCC(=O)N(C)C[C@H]1Oc2ncc(C#C[C@H](C)O)cc2C(=O)N([C@H](C)CO)C[C@@H]1C | inactive | inactive | inactive
